Whole data set: some 110,000 compounds, median “z-score” near -0.1, cut for the highest 2% near 2. The list shows a part of the results. Activity calls are given as the source filed them.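 Rule for the calls: active = z-score in the third read window above 3 or below -3; inactive = the rest.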
Target: Metabotropic glutamate receptor 8 (Rattus norvegicus) (UniProt P70579)
Experiment: mGluR8 Gi/Go-coupled signaling modulation – cell-based, rat, thallium flux, HTS, primary screen (AID 488969)
Settings: HEK293 rat mGluR8, GIRK (G protein-gated inwardly rectifying potassium channel) thallium flux, FluoZin2; at 10 µM; stronger effect = higher value; submaximal glutamate (EC20) added with thallium

Chain of UniProt P70579 (P70579 whole entry, looked up): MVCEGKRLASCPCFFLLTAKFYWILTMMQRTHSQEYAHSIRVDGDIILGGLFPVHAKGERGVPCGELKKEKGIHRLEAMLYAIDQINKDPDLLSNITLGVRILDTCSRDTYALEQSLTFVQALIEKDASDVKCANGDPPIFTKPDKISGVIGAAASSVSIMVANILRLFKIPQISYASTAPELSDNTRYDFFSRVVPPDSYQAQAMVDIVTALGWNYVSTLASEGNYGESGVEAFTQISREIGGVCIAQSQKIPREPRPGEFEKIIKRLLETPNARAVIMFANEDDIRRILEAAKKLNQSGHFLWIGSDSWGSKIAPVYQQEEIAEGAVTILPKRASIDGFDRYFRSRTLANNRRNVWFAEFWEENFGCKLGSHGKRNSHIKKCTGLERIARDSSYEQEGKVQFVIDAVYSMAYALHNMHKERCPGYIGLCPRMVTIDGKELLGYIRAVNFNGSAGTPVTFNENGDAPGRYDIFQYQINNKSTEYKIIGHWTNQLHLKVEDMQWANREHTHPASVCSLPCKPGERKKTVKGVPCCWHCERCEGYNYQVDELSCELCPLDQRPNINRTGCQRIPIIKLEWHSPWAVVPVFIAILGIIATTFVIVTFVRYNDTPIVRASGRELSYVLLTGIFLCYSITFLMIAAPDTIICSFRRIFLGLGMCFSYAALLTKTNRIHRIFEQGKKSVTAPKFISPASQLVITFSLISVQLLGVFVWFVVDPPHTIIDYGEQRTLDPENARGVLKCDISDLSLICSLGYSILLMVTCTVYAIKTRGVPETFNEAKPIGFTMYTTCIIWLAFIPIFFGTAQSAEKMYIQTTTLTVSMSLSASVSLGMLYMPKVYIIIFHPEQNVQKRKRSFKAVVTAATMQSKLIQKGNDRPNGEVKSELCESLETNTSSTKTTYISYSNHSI

In order of falling z-score:
1. CCc1ccc2c(c1)c(N=NC1=NC(=O)CS1)c(O)n2CC  2.98
2. Cc1ccc(Nc2c(-c3ccc(C)o3)nc3cnccn23)cc1  2.11
3. CCn1cc(C(=O)NCC2CCCO2)c(=O)c2cc(S(=O)(=O)N3CCCCC3)ccc21 (configuration not stated)  1.37
4. COC(=O)c1ccc(C2C(C(=O)OCC(C)C)=C(C)N=C3SCCC(=O)N32)cc1 (configuration not stated)  1.35
5. CCCCOC(=O)C1C2C=C[C@]3(CN(CCCOC)C(=O)[C@H]13)O2 (some centres not stated)  1.34
6. O=C(Nc1ccc2c(c1)Cc1ccccc1-2)c1ccco1  1.23
7. CCOC(=O)c1ccc(N2C(=O)CC(N3CCC(Nc4ccc(F)cc4)CC3)C2=O)cc1 (configuration not stated)  0.975
8. CCCCOc1cccc(C(=O)NNC(=S)NC2CCCCC2)c1  0.969
9. Cc1cc(C)n(Cc2ccc(Cl)c(Cl)c2)c(=O)c1S(=O)(=O)c1ccccc1  0.922
10. COc1cc(C(=O)OCC(=O)NCc2ccc(F)cc2)cc(NC(=O)c2cccs2)c1OC  0.786
11. CCN(CC)CC#CCC(C)(c1ccccc1)c1ccccc1  0.762
12. Cc1ccc(CSc2nncn2-c2ccccn2)cc1  0.733
13. CC(C)CCn1c(CN2CCN(Cc3ccccc3)CC2)nc2c1c(=O)n(C)c(=O)n2C  0.709
14. COCCCNc1nc(SCc2ccccc2)nc2sc3c(c12)CCC3  0.635
15. c1ccc(-n2ncc3c(NCCN4CCCCC4)ncnc32)cc1  0.62
16. CCOc1ccc2cc(S(=O)(=O)N3CCN(C)CC3)ccc2c1  0.586
17. COc1cccc(-c2ccc(-c3noc(-c4cccs4)n3)c(OC)n2)c1  0.465
18. Cn1c(=O)c2c(nc(NCc3cccnc3)n2Cc2ccc(Cl)cc2)n(C)c1=O  0.445
19. CCOP(=O)(c1ccccc1)C1(O)CCCCC1 (configuration not stated)  0.442
20. COCCN1C(=O)C(=O)/C(=C(/O)c2cccc(OC)c2)C1c1ccncc1 (configuration not stated)  0.382
21. NC(=O)/C(=N\OC(=O)c1ccco1)c1nc(-c2ccc(Br)cc2)cs1  0.35
22. COc1ccc(Cl)cc1NC(=S)NCc1ccco1  0.347
23. CC(C)CNc1c(N)c(=O)oc2ccccc12  0.318
24. O=C(c1ccc(Cl)c(S(=O)(=O)N2CCCCCC2)c1)N1CCN(CCO)CC1  0.275
25. COc1ccc(NC(=O)CSc2ncnc3c2cnn3Cc2ccccc2)cc1OC  0.253
26. O=S(=O)(NCc1cc(-c2ccccc2)no1)c1ccc(Cl)cc1  0.245
27. N=C(N)CCCOc1ccccc1-c1ccccc1  0.24
28. O=C(c1ccccn1)N(Cc1ccco1)C1(C(=O)NC2CCCCC2)CCCCC1  0.227
29. COc1ccc(-c2nn(-c3ccccc3)cc2C(=O)O)cc1OC  0.191
30. CCC(=O)NC(=S)Nc1cccc(C(C)=O)c1  0.175
31. CC(C)C(=O)N(Cc1ccccc1)c1ccccn1  0.16
32. COc1ccc(OCCN2C(=O)NC3(CCc4ccccc4C3)C2=O)cc1 (configuration not stated)  0.153
33. CCn1c(NCc2ccccn2)nc2c1c(=O)n(C)c(=O)n2C  0.144
34. COc1cccc2c(=O)n(CC(=O)N3CCC(C)CC3)ccc12  0.139
35. COc1ccc(NC(=O)C2CCCN(S(=O)(=O)c3ccc4c(c3)oc(=O)n4C)C2)cc1OC (configuration not stated)  0.13
36. Cc1ccc(Nc2nc(Nc3ccc(C)cc3)nc(SC3=NCCS3)n2)cc1  0.127
37. CCCC(=O)Nc1ccccc1NC(=O)CN(C)S(=O)(=O)c1ccc(C)cc1  0.121
38. Cc1ccc(Nc2nc(C)cc(C)c2C(N)=O)cc1  0.12
39. Cc1ccc(CNC(=O)c2ccc(Cl)cc2[N+](=O)[O-])cc1  0.104
40. CC1=CC(=C(C#N)C#N)C=C(C)N1CCN1CCN(C(=O)Nc2cccc(Cl)c2)CC1  0.093
41. CC1CCCN(CCOc2ccc(Br)cc2)C1 (configuration not stated)  0.0919
42. CN(C)C(=O)c1ccccc1-c1ccccc1  0.0914
43. CC(N)C12CC3CC(CC(O)(C3)C1)C2 (configuration not stated)  0.0862
44. CCOC(=O)Cc1c(C)nc2cc(-c3ccc(C)cc3)[nH]n2c1=O  0.0804
45. CCNC(=O)c1ccc(-n2nc(C(F)(F)F)c3c2CCCC3)cc1  0.0724
46. CCc1nnc(N2C(=O)c3cccc4cccc(c34)C2=O)s1  0.0435
47. CCN(CC(=O)Nc1ccc(N2CCOCC2)cc1)Cc1nc2ccccc2c(=O)[nH]1  0.0413
48. COc1cccc(N2CC(C)Cn3c2nc2c3c(=O)n(CCN3CCOCC3)c(=O)n2C)c1 (configuration not stated)  0.0399
49. Cc1ccc(C2C(C#N)=C(N)Oc3n[nH]c(-c4cccs4)c32)cc1 (configuration not stated)  0.0389
50. COC(=O)c1ccc(NC(=S)Nc2ccc3ccccc3c2)cc1  0.0296
51. Cc1c(Cl)cnc(NC(=O)COC(=O)Cc2coc3ccc4ccccc4c23)c1Cl  0.0158
52. CCn1ncc(/C=C/C(=O)NCc2cnn(C)c2C)c1C  -0.00194
53. O=c1ccc(/C=C/c2ccccc2)nn1Cc1ccccc1  -0.00241
54. COc1ccc(C(C)=O)cc1CSc1nnc(Nc2ccc(C)cc2C)s1  -0.00598
55. O=C(Oc1c(Cl)cc(Cl)c2cccnc12)N1CCOCC1  -0.0144
56. CCN(CC)CCP(=O)(c1ccccc1)c1ccccc1  -0.0169
57. Cc1ccc(N(C(C)C(=O)Nc2cc(Cl)ccc2Oc2ccccc2)S(C)(=O)=O)cc1 (configuration not stated)  -0.0281
58. C=CCn1c(NCc2cc(C)ccc2O)nc2ccccc21  -0.0349
59. CSc1ccc(/C=C/C(=O)c2ccc(NC(=O)Cc3ccccc3)cc2)cc1  -0.0401
60. COc1ccc(C(=O)CSc2nccc(=O)[nH]2)cc1  -0.0441
61. O=c1oc2c3c4c(cc2c(C(F)(F)F)c1CCN1CCOCC1)CCCN4CCC3  -0.0494
62. CC1(c2ccccc2)NC(=O)N(Cc2ccc([N+](=O)[O-])cc2)C1=O (configuration not stated)  -0.0601
63. CC(C(=O)N1CCCc2ccccc21)N1CCN(S(=O)(=O)c2ccccc2F)CC1 (configuration not stated)  -0.0602
64. CCn1c(Cc2c(C)[nH]c3ccccc23)nnc1SCC(N)=O  -0.0619
65. CC(C)N(C(=O)CN1C(=O)NC2(CCCCCC2)C1=O)C(C)C  -0.0714
66. Cc1nc(NC(=O)COc2ccccc2)sc1C(=O)Nc1ccccc1  -0.075
67. CCOc1ccc(CC(C(=O)NN)C(=O)NN)cc1CN(C)C  -0.0777
68. COc1cccc(CNC(=O)C2CCC(CNS(=O)(=O)c3cccc4nsnc34)CC2)c1 (configuration not stated)  -0.0786
69. CN(CCOC(=O)c1cccc(F)c1)Cc1ccccc1  -0.083
70. O=C(CCc1ccccc1)Nc1ccc(N2CCCCC2)cc1  -0.101
71. COC(=O)c1cc(=O)n(CCc2ccccc2F)c(=Nc2ccc(F)c(Cl)c2)s1  -0.11
72. CCOCC(=O)Nc1ccc(C)c(Cl)c1  -0.115
73. CC(C)(C)c1cc(-c2ccco2)c(C#N)c(SCC#N)n1  -0.116
74. Cc1ccc2nc(SCC(=O)Nc3cc(C)on3)[nH]c2c1  -0.134
75. O=C(CSCc1cnn(-c2ccccc2)c1-n1cccc1)N1CCN(Cc2ccccc2)CC1  -0.143
76. CCN1CCCC1CNC(=O)c1cc(NC(C)=O)c(N(C)C)cc1OC (configuration not stated)  -0.154
77. CCOc1ccc(NC(=O)CSc2nc3cccnc3n2CCOC)cc1  -0.17
78. CSCCC(CO)NC(=O)OCc1ccccc1 (configuration not stated)  -0.173
79. N#Cc1c(-c2ccccc2)cc2nc3ccccc3n2c1N  -0.183
80. CCCc1nc2ccc(NC(=O)c3ccco3)cc2c(=O)n1Cc1ccc(Cl)cc1  -0.191
81. Cc1nc(=O)c(-c2ccccc2)c(C)n1CCCO  -0.193
82. Cc1ccc(C(=O)C(OC(=O)CNC(=O)c2ccc(Cl)cc2)c2ccccc2)cc1 (configuration not stated)  -0.207
83. CCC(=O)N1CCc2cc(S(=O)(=O)CCC(=O)NCCc3ccccc3)ccc21  -0.24
84. O=C(C1CC1)N1CCc2cc(S(=O)(=O)NC3CCN(Cc4ccccc4)CC3)ccc21  -0.243
85. CCOC(=O)c1cc2sccc2n1CC(=O)Nc1ccc(OC)cc1OC  -0.246
86. Cc1ccc(NS(=O)(=O)c2cc(C(=O)NCc3ccccn3)ccc2Cl)cc1C  -0.261
87. COC(=O)Nc1nnc(/C=C/c2ccccc2)s1  -0.268
88. O=C(COC(=O)c1cc(S(=O)(=O)N2CCOCC2)ccc1F)c1ccc[nH]1  -0.281
89. Cc1nn(-c2ccccc2)c2sc(C(=O)OC3CCOC3=O)cc12 (configuration not stated)  -0.284
90. O=C(c1cccc(C(=O)N2CCN(c3ccccc3)CC2)c1)N1CCN(c2ccccc2)CC1  -0.329
91. Cc1ccc(SCc2ccc(C(=O)NCc3cccnc3)cc2)cc1  -0.334
92. Nc1nnc(CSc2ccc(Cl)cc2)s1  -0.359
93. CC(=O)N1CCN(Cc2nc3cc(NC(=O)c4ccccc4C)ccc3n2C)CC1  -0.36
94. c1ccc(Oc2cccc(OCCCn3cncn3)c2)cc1  -0.364
95. Cc1cc(C(=O)NCC(=O)OCC(=O)N(C2CCCCC2)C2CCCCC2)ccc1[N+](=O)[O-]  -0.388
96. Brc1ccc(Oc2nsnc2N2CCOCC2)cc1  -0.407
97. CCc1ccccc1NC(=O)c1onc(C)c1Cl  -0.446
98. CCOC(=O)C1CCN(C(=O)c2cnn3c(C)cc(C)nc23)CC1  -0.493
99. CCOc1cc2[nH]c(=S)n(Cc3ccc(C(=O)NCCOC)cc3)c(=O)c2cc1OCC  -0.495
100. Nc1ccnn1Cc1ccc(Br)s1  -0.502
101. Cc1ccccc1N=Cc1cc2c(cc1O)OC(N)=C(C#N)C2c1ccccc1 (configuration not stated)  -0.548
102. NS(=O)(=O)c1ccc(CCNc2nc(CN3CCOCC3)nc3sc4c(c23)CCC4)cc1  -0.549
103. CS(=O)(=O)N(Cc1ccc(Cl)cc1)c1ccc(C(=O)N2CCN(c3ccccc3)CC2)cc1  -0.563
104. COc1ccccc1N(CC(=O)Nc1cccnc1)S(C)(=O)=O  -0.573
105. Cc1cc(NC(CC(C)C)C(=O)O)nc(Cc2ccccc2)n1 (configuration not stated)  -0.583
106. COc1cc(CN(C)CCc2ccccc2)ccc1OCc1ccccc1  -0.78
107. O=C(CSc1nnc(-c2ccccc2O)o1)Oc1ccc(Br)cc1  -0.839
108. CS(=O)(=O)N(Cc1ccccc1)c1ccc(C(=O)N2CCc3ccccc3C2)cc1  -1.2
109. Cc1cc2c(n1-c1ccc(Cl)cc1)CC(C)(C)CC2=O  -1.28
110. CCn1c(SCC(=O)OCc2ccccc2)nnc1-c1ccco1  -1.54

For `CCCc1nc2scc(-c3ccccc3)c2c(=O)n1N`, the z-score was active: -3.26.
With `Cc1cccc2c1nc(-c1ccccc1)n1cnnc21` the z-score was active: -3.97.

Source: PubChem BioAssay AID488969 (Vanderbilt High Throughput Screening Facility, 2010)
